# The other results are listed elsewhere or left out.
# B1: Fm1D (Escherichia coli) (protein)
# chain: FSCNVDGGSSIGAGTTSVYVNLDPVIQPGQNLVVDLSQHISCWNDYGGWYDTDHINLVQGSAFAGSLQSYKGSLYWNNVTYPFPLTTNTNVLDIGDKTPMPLPLKLYITPVGAAGGVVIKAGEVIARIHMYKIATLGSGNPRNFTWNIISNNSVVMPTHHHHHH
# Key:
# Experiment in all cases: glycan array binding signal (z-score within array); higher = stronger binding
# Details in all cases: glycan notation: IUPAC condensed, linker removed
# [1] = target: Gal(a1-3)Gal(b1-4)GlcNAc(b1-2)Man(a1-3)[Gal(a1-3)Gal(b1-4)GlcNAc(b1-2)Man(a1-6)]Man(b1-4)GlcNAc(b1-4)GlcNAc
# Outline: (§1)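 Glycan array binding is given as a within-array Z-score, which can be read as non-binding when negative. The arrays, 3228 of them, came from the Consortium for Functional Glycomics database and were retained only where the protein sequence was available. Z-scores were averaged across arrays of the same protein sequence at different concentrations or buffers and across linkers.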
# [2] = target: Gal(a1-3)Gal(b1-4)GlcNAc(b1-3)GalNAc
# Outline: as §1
# [3] = target: Gal(a1-3)Gal(b1-4)GlcNAc(b1-6)GalNAc
# Outline: as §1
# [4] = target: Gal(a1-3)Gal(b1-4)[Fuc(a1-3)]GlcNAc
# Outline: as §1
# [5] = target: Gal(a1-3)Gal(b1-4)[Fuc(a1-3)]GlcNAc(b1-2)Man(a1-3)[Gal(a1-3)Gal(b1-4)[Fuc(a1-3)]GlcNAc(b1-2)Man(a1-6)]Man(b1-4)GlcNAc(b1-4)GlcNAc
# Outline: as §1
# Gal(a1-3)GalNAc = target: Gal(a1-3)GalNAc
# Outline: as §1
# [6] = target: Gal(a1-3)[Gal(a1-4)]Gal(b1-4)GlcNAc
# Outline: as §1
# [7] = target: Gal(a1-4)Gal(b1-3)GlcNAc(b1-2)Man(a1-3)[Gal(a1-4)Gal(b1-3)GlcNAc(b1-2)Man(a1-6)]Man(b1-4)GlcNAc(b1-4)GlcNAc
# Outline: as §1
# Gal(a1-4)Gal(b1-4)Glc = target: Gal(a1-4)Gal(b1-4)Glc
# Outline: as §1
# Gal(a1-4)Gal(b1-4)GlcNAc = target: Gal(a1-4)Gal(b1-4)GlcNAc
# Outline: as §1
# [8] = target: Gal(a1-4)Gal(b1-4)GlcNAc(b1-2)Man(a1-3)[Gal(a1-4)Gal(b1-4)GlcNAc(b1-2)Man(a1-6)]Man(b1-4)GlcNAc(b1-4)GlcNAc
# Outline: as §1
# [9] = target: Gal(a1-4)Gal(b1-4)GlcNAc(b1-3)Gal(b1-4)Glc
# Outline: as §1
# Gal(a1-4)GlcNAc = target: Gal(a1-4)GlcNAc
# Outline: as §1
# Gal(a1-6)Glc = target: Gal(a1-6)Glc
# Outline: as §1
# Gal(b1-2)Gal = target: Gal(b1-2)Gal
# Outline: as §1
# Gal(b1-3)Gal = target: Gal(b1-3)Gal
# Outline: as §1
# Gal(b1-3)Gal(b1-4)GlcNAc = target: Gal(b1-3)Gal(b1-4)GlcNAc
# Outline: as §1
# Gal(b1-3)GalNAc = target: Gal(b1-3)GalNAc
# Outline: as §1
# [10] = target: Gal(b1-3)GalNAc(a1-3)[Fuc(a1-2)]Gal(b1-4)Glc
# Outline: as §1
# [11] = target: Gal(b1-3)GalNAc(a1-3)[Fuc(a1-2)]Gal(b1-4)GlcNAc
# Outline: as §1
# Gal(b1-3)GalNAc(b1-3)Gal = target: Gal(b1-3)GalNAc(b1-3)Gal
# Outline: as §1
# [12] = target: Gal(b1-3)GalNAc(b1-3)Gal(a1-4)Gal(b1-4)Glc
# Outline: as §1
binder,measurement,setting,value
B1,glycan array binding signal (z-score),[1],-0.138
same,glycan array binding signal (z-score),[2],-0.148
same,glycan array binding signal (z-score),[3],-0.143
same,glycan array binding signal (z-score),[4],-0.142
same,glycan array binding signal (z-score),[5],-0.139
same,glycan array binding signal (z-score),Gal(a1-3)GalNAc,-0.138
same,glycan array binding signal (z-score),[6],-0.125
same,glycan array binding signal (z-score),[7],-0.136
same,glycan array binding signal (z-score),Gal(a1-4)Gal(b1-4)Glc,-0.142
same,glycan array binding signal (z-score),Gal(a1-4)Gal(b1-4)GlcNAc,-0.141
same,glycan array binding signal (z-score),[8],-0.14
same,glycan array binding signal (z-score),[9],-0.144
same,glycan array binding signal (z-score),Gal(a1-4)GlcNAc,-0.141
same,glycan array binding signal (z-score),Gal(a1-6)Glc,-0.143
same,glycan array binding signal (z-score),Gal(b1-2)Gal,-0.138
same,glycan array binding signal (z-score),Gal(b1-3)Gal,-0.126
same,glycan array binding signal (z-score),Gal(b1-3)Gal(b1-4)GlcNAc,-0.137
same,glycan array binding signal (z-score),Gal(b1-3)GalNAc,2.2
same,glycan array binding signal (z-score),[10],-0.146
same,glycan array binding signal (z-score),[11],-0.14
same,glycan array binding signal (z-score),Gal(b1-3)GalNAc(b1-3)Gal,-0.12
same,glycan array binding signal (z-score),[12],-0.118
